Out of some 150,000 compounds screened, about 540 (0.36%) showed an effect of 50% or more. Some of the results follow.
System: Plasmodium falciparum
Assay: Primary screen in NF54 nanoGlo assay, in single point, at 2uM, 72h; a lower Z score goes with more inhibition
Assay type: functional, Erythrocyte
Details: timepoint 72 hour

SMILES | % Inhibition [%] | Z score
CC[C@H](NC(=O)Cc1ccccn1)c1cccs1 | -5 | 0.63
CC(C)c1nc(-c2noc(-c3ccsn3)n2)cs1 | -19 | 3.72
COCCN(CC(C)C)C(=O)Nc1cc(Cl)ccc1C | -15 | 1.88
CC(C)NCc1cc2c(nc1O)CCCC2 | 0 | -0.01
COc1cc(C#N)ccc1Oc1ccc(NC(=O)NC[C@@]2(C)CC2(F)F)cc1 | -8 | 1.24
O=C(CCc1ccc2[nH]ccc2c1)N[C@H](CO)CN1CCOCC1 | -5 | 0.56
COc1ccc(-c2noc(-c3cccnc3N(C)C)n2)cc1 | -4 | 0.58
CC(C)CCn1ccc(NCc2nc(-c3cnn(C)c3)cs2)n1 | -5 | 0.59
CN=C(NCCCn1cc(C)cn1)N[C@@H](C)c1ccccc1OC | 13 | -1.43
C[C@H](NC(=O)Nc1ccc(COC2CCCC2)cc1)C(=O)N(C)C | -3 | 0.53
C[C@H](NS(=O)(=O)Cc1ccccc1)C(=O)NCc1cscn1 | 2 | -0.22
C#CCN1CCN(CC#C)[C@H](C(=O)N(C)C)C1 | 29 | -3.25
CCOc1cc(C(=O)N(C)C)ccc1NCc1cc(C#N)n(C)c1C | -13 | 1.86
CC(C)n1cc(CN2C[C@@H](Oc3ccccc3)C[C@H]2C(N)=O)cn1 | -11 | 1.51
CC[C@](C)(NC(=O)Nc1nc(COC)cs1)c1nc(C)cs1 | -8 | 0.73
Fc1cccc2c(N3CC(NC4CCOCC4)C3)ncnc12 | 7 | -1.14
CCc1noc(C2CCC(NCc3ncccc3O)CC2)n1 (stereo unspecified) | -4 | 0.4
Cc1ccc(S(=O)(=O)N2CCN(CC(C)C)C(=O)C2)o1 | 27 | -3.08
CC(C)=CCN[C@@H](C)c1ccccc1Br | -10 | 1.1
COCc1cc(=O)[nH]c2cc(NC(=O)c3ccco3)ccc12 | -24 | 3.46
CCCCN(C)S(=O)(=O)N1CCC2(CC1)C[C@@H]2c1nc(-c2cccc(Cl)c2)no1 | -10 | 1.16
Cc1ccc(N2CCN(CCn3cnnc3C)[C@@H](C)C2)cc1 | -14 | 1.58

SMILES | % Inhibition [%] | Z score
Cc1noc(C)c1CN1C(=O)[C@@H]2CC[C@H]1CN(C(=O)c1ccn(C)n1)C2 | -4 | 0.48
COCCOC[C@H]1CCN(C(=O)c2cc(C)oc2C)C1 | -13 | 1.98
CCc1cc(OC)ccc1CN(C)[C@@H]1COC[C@H]1O | 2 | -0.24
Cc1cccc(C)c1OCC(O)CN1CCCC(Cn2cncn2)C1 (stereo unspecified) | -6 | 0.79
COC(=O)CCNC(=O)c1ccc(NCCn2ccnc2)cc1 | -10 | 1.98
CC(C)(C)OC(=O)NC1C[C@H]2COC[C@@H](C1)C2N (stereo partly specified) | -11 | 1.23
Cc1cc(C(F)(F)F)n(C[C@@H](C)CNC(=O)N2CCNC(=O)C2)n1 | -9 | 1.25
Cc1c(CCC(=O)N2CC3(CCCC3)c3cccc(Cl)c32)cnn1C | -7 | 1.32
COc1cc(CC(=O)N(C)c2cccnc2OC)ccc1Cl | 4 | -0.56
CCC1(CC)C(OC)CC1N(C)c1cncc(C(N)=O)n1 (stereo unspecified) | -5 | 0.71
CC(=O)N1CC[C@H](NC(=O)c2ncccc2Br)C1 | 22 | -2.54
O[C@@]1(C(F)F)CCN(Cc2ccco2)C1 | 6 | -1.08
CN(CC#N)CCCc1ccc(Cl)cc1 | -7 | 1.04
O=C1[C@H]2CN(Cc3ccccc3Cl)C[C@H]2C(=O)N1Cc1ccc2c(c1)OCO2 | -10 | 1.21
CC(C)[C@H](NS(=O)(=O)N1CCN(C)CC1)c1ccccn1 | 0 | -0.09
Cc1cc(NC(=O)C(C)N2CCCCC2Cn2cncn2)on1 (stereo unspecified) | 5 | -0.56
Cc1ccccc1C(CC(=O)NCc1ccccc1)c1cnc2n1CCCC2C (stereo unspecified) | -2 | 0.3
CCOC(=O)CC1(N(C)C(=O)c2cc(C)n[nH]2)CCCCC1 | -11 | 2.22
FC(F)(F)c1ccc(-c2nc(CN(Cc3ccccc3)Cc3ccccc3)cs2)cc1 | 0 | 0.08
Cn1c(C(F)(F)F)nn(C2CCN(S(=O)(=O)Cc3cccc(Cl)c3)CC2)c1=O | -10 | 1.09
CN1C(=O)N(c2cccc(C#N)c2)C(=O)C12CCCC2 | -1 | 0.12

Source: ChEMBL document CHEMBL4888484, “Replenishing the malaria drug discovery pipeline: Screening and hit evaluation of the MMV Hit Generation Library 1 (HGL1) against asexual blood stage Plasmodium falciparum ,using a nano luciferase reporter read-out” (2022)
